Reference: publication PMC4336329 (PLoS ONE, 2015)
Among all 310,000 compounds or so, about 14,000 (4.5%) showed an effect of 50% or more. Effects have a minus sign here. Some of the results follow.

Biological target: human ether-à-go-go-related gene (hERG) potassium channel (human, UniProt Q12809)
Test: primary screen, population patch clamp on CHO cells stably expressing hERG
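Note: peak tail current of the secondary pulse compared with the same well before compound.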

Sequence of human ether-à-go-go-related gene (hERG) potassium channel (Q12809 whole entry, looked up): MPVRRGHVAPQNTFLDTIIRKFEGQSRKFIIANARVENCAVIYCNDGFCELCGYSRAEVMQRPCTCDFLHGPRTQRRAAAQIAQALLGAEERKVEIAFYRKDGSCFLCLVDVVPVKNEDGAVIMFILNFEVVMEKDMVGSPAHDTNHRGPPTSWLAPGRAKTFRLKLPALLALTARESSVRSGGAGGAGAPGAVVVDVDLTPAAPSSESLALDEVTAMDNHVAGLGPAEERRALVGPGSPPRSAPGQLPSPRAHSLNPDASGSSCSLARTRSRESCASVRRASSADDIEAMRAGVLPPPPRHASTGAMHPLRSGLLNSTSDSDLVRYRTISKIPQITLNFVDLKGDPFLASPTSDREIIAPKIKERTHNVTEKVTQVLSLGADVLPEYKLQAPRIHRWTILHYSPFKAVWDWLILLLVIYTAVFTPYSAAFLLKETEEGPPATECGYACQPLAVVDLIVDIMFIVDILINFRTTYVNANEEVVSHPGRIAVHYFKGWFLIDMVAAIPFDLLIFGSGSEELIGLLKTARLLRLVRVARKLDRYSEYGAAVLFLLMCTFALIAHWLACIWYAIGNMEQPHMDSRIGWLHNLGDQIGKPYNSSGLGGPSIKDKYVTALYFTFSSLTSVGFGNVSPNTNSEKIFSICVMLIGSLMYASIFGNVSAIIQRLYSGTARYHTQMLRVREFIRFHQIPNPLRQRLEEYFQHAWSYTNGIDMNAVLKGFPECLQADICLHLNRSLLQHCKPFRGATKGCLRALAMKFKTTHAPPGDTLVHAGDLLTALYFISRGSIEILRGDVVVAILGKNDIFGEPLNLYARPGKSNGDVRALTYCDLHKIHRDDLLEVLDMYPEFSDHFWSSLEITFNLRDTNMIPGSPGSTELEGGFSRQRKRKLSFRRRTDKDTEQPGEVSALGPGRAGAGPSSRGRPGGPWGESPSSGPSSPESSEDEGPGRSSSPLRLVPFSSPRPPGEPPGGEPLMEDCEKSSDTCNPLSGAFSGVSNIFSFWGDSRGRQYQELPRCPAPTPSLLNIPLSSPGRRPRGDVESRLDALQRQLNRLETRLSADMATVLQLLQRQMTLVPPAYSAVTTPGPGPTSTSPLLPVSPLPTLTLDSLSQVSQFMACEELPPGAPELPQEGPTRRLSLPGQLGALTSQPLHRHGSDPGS

SMILES	hERG current change (%, negative = inhibition) at 10uM [%]
COC(=O)C(Oc1ccc2c(-c3ccc(OC)cc3)cc(=O)oc2c1)c1ccccc1 (stereo not shown)	6.15
Oc1c(I)cc(I)c2cccnc12	-18
Cc1cccc(/N=C/c2c(O)cc(C)oc2=O)n1	11.7
Cc1cccc(N(CC(=O)NC(C)C)C(=O)CCC(=O)Nc2ccccn2)c1	1.23
Oc1ccc2n[nH]nc2c1	14.8
COc1cccc(N2CCN(S(=O)(=O)c3ccc4c(c3)CC(C)N4C(=O)C3CC3)CC2)c1 (stereo not shown)	17.8
Cn1c(NC(=O)c2ccccc2F)c(-c2cccs2)c(=O)c2ccccc21	-0.0867
CCC(=O)NC(=S)Nc1ccc(NC(=O)CC)cc1	6.81
Cc1cc(C)nc(NC(=NCc2ccc3c(c2)OCO3)NC(=O)Nc2ccccc2)n1	-4.02
Cn1c(SCC(=O)Nc2ccccc2Br)nnc1-c1cnccn1	4.4
Cc1ccc(NC(=O)C(C)Sc2n[nH]c(CNc3ccccc3)n2)cc1 (stereo not shown)	12.3
CC1(C)Cc2c(sc3nc(SCC(=O)NCc4ccco4)n(-c4ccccc4)c(=O)c23)CS1	15.7
COc1ccc(S(=O)(=O)CC(=O)Nc2nnc(C(F)(F)F)s2)cc1	-1.35
Cc1cc(N2CCN(C)CC2)nc2ccc(NC(=S)NCCN3CCc4ccccc4C3)cc12	-23.7
CC(C)(C)NC(=O)C(Cc1ccccc1)NS(=O)(=O)c1cccc2nsnc12 (stereo not shown)	-1.39
Cc1cc(OC(=O)c2ccccc2Br)c([N+](=O)[O-])c(=O)[nH]1	16.7
O=C(COC(=O)c1cccnc1)Nc1cccc(Cl)c1	9.52
CCOC(=O)c1ccc(-c2ccc(/C=N/NC(=O)CN(c3ccccc3Br)S(C)(=O)=O)o2)cc1	15.9
CNc1nc(SCc2ccccc2Cl)nc2c1CCCC2	6.51
CSc1ccc(C2C(C#N)=C(N)Oc3c2ccc(=O)c2c(C)oc(C)c32)cc1 (stereo not shown)	13.4
Cc1ccc(C(=O)Cc2nc3ccccc3[nH]2)cc1	2.85
CNS(=O)(=O)c1cnccc1N1CCN(C)CC1	20.1

SMILES	hERG current change (%, negative = inhibition) at 10uM [%]
Cc1cc(NC(=O)CSc2nc(Cc3ccccc3)c(C)[nH]2)no1	6.8
O=C(COC(=O)Cc1ccc(F)cc1)Nc1ccc(Cl)cn1	10
C[C@H](NC(=O)c1nc[nH]c1C(=O)NC1CCN(C(=O)OC(C)(C)C)CC1)C(=O)OC(C)(C)C	2.98
O=C(CCC1CCCN(C(=O)C2=CCCC2)C1)N1CCN(c2ccccn2)CC1 (stereo not shown)	5.83
Cc1ccc(NC(=O)C2Cc3ccccc3O/C2=N\O)cc1C (stereo not shown)	15.1
Cc1ccsc1C(=O)N1CCN(c2ncc(C(F)(F)F)cc2Cl)CC1	-21
Cc1ccc(OCCn2c(=O)oc3ccc(C)cc32)cc1	14.1
Cc1cc(NC(=O)c2ccoc2C)ccc1Br	-31.8
CCCCOC(=O)Cn1c(=N)n(CCC)c2ccccc21.Cl	-31.5
COc1ccc(CC2(C)OC(c3ccc(C)c([N+](=O)[O-])c3)=NN2C(C)=O)cc1 (stereo not shown)	8.44
CCOC(=O)C1CCN(C2CC(=O)N(c3ccc(OCC)cc3)C2=O)CC1 (stereo not shown)	-34.4
COc1cc(NC(=O)c2cc(-c3ccco3)on2)cc(OC)c1OC	-2.28
COc1ccc(-c2ccc([C@H]3[C@H]4C=CC[C@@H](C)[C@@H]4C(=O)N3Cc3ccccc3)c(F)c2)cc1C	10
O=C(N/N=C/c1cccc(F)c1)c1c(O)c2c([nH]c1=O)CCCC2	-9.58
CN(C)S(=O)(=O)c1ccc2oc(SCC(=O)c3c(N)n(C4CC4)c(=O)[nH]c3=O)nc2c1	14.3
CCOC(=O)N1CCN(C(=O)c2ccc(C#CC3(O)CCCCC3)cc2)CC1	-7.86
CC[C@]1(O)C[C@@H]2CN(CCc3c([nH]c4ccccc34)[C@@](C(=O)OC)(c3cc4c(cc3OC)N(C=O)[C@H]3[C@@](O)(C(=O)OC)[C@H](OC(C)=O)[C@]5(CC)C=CCN6CC[C@]43[C@@H]65)C2)C1.O=S(=O)(O)O	22
O=C(COC(=O)CCC1CCCCC1)Nc1ccc(OC(F)F)cc1	3.35
COC(=O)CSC1=C(C#N)C(c2ccc(C)cc2)C2=C(CCCC2=O)N1 (stereo not shown)	-10.5
Cc1nc2nc(C)c(CCC(=O)NCCCN3CCN(c4cccc(Cl)c4)CC3)c(C)n2n1	5.45
CC1(C)CC(=O)C2=C(C1)OC(N)=C([N+](=O)[O-])C2c1cccs1 (stereo not shown)	4.29
